# Test results: PubChem BioAssay AID902 (National Center for Advancing Translational Sciences (NCATS), 2007)
# Several values for one entry are separate records, joined by “and”; a condition that tells them apart may be missing. Identical values can stand only once. The campaign covered roughly 130,000 compounds. About 1,900 (1.5%) were called active. This list was built around the results that the source calls inconclusive (neither active nor inactive); the mix of calls is not that of the screen. Calls follow the shape of the dose curve; as a rule, active = well fitted cell-killing curve with a large enough effect; inconclusive = small, poorly fitted or top-dose-only effect; inactive = no such curve, though single readings can be large or run the other way. Where the call is inconclusive, the potency comes from a doubtful curve fit.
# Experiment: qHTS Screen for Compounds that Selectively Target Cancer Cells with p53 Mutations: Cytotoxicity of p53ts Cells at the Nonpermissive Temperature; also: nearly all actives have a fitted effect of over 55% in size
# Settings: H1299-p53A138V viability at 39C, ATP luminescence, 24 h; activity change, negative = cell killing: at 46.1 µM (top of the series)
# % is scaled to controls: 0 for no effect and ±100 for the full control effect; potency is read from the fitted curve at half-maximal effect; tags tell the direction and shape of the fitted curve.
Structure (SMILES),"activity change, negative = cell killing",Potency
O=C(COc1ccccc1O)Nc1ccc(Cl)cc1,inactive: -5.13%,
Cc1ccc(NC(=O)CSc2nc(-c3ccco3)cc(C(F)(F)F)n2)cc1,,"inconclusive: 10 µM [cytotoxic, single point]"
COc1cccc(C(=O)Nc2ccc(NC(=O)C(C)(C)C)cn2)c1,,active: 3.16 µM
CCN(CC)c1ccc(-c2nc(-c3ccccc3C)no2)cc1[N+](=O)[O-],inactive: 7%,
Fc1ccc(-c2noc3ncnc(NCCCN4CCN(c5ccccc5)CC4)c23)cc1,,"inconclusive: 10 µM [cytotoxic, partial curve]"
Cc1c2ccccc2c(CSC(=N)N)c2ccccc12,,"inconclusive: 15.8 µM [cytotoxic, single point] and inconclusive: 1.58 µM [cytotoxic, partial curve]"
COc1ccc(CNC(=O)C2CCN(c3nc4ccccc4[nH]3)CC2)cc1OC,inactive: 24.5%,
Cc1ccc2sc(NC(=O)c3ccc4c(c3)OCCO4)nc2c1C,,"inconclusive: 6.31 µM [cytotoxic, partial curve]"
O=C(NCCCN1CCN(c2ccc(F)cc2)CC1)c1ccc2nc(Cc3ccccc3)oc2c1,,"inconclusive: 3.98 µM [cytotoxic, full curve, poor fit]"
CCc1nn(Cc2ccc(Cl)cc2)c(=O)c2cc3cc(C)ccc3n12,,"inconclusive: 1.26 µM [cytotoxic, full curve, poor fit]"
O=C(Cc1ccccc1)Nc1nc(-c2cccs2)cs1,,"inconclusive: 3.98 µM [cytotoxic, single point]"
Cc1ccc(NC(=O)c2sc3nc4c(cc3c2N)CN(Cc2ccccc2)CC4)cc1,,"inconclusive: 25.1 µM [cytotoxic, single point]"
CCCc1cc(C(=O)Nc2ccc(C)cc2)no1,inactive: -5.15%,
c1ccc(SCCOCCn2cncn2)cc1,,"inconclusive: 12.6 µM [cytotoxic, single point]"
Cc1cccc(-c2nc(SCCCOc3ccc(Cl)c(C)c3)n3[nH]c(=O)cc3n2)c1,inactive: 6.34%,
CCCSc1nc2sc3c(c2c(=O)n1Cc1ccccc1)CC(C)(CC)OC3 (stereo not drawn),inactive: 31.1%,
COc1ccccc1-c1nc(N(C)C)c2ccccc2n1,,"inconclusive: 12.6 µM [cytotoxic, single point]"
CCN1CCN(C(=O)c2cc3c(=O)n4ccccc4nc3n2Cc2ccccc2)CC1,,active: 12.6 µM
CCCCCn1c(-c2ccc(OC)c(OC)c2)nc2ccccc21,,"inconclusive: 10 µM [cytotoxic, partial curve]"
Cc1nn(CC(=O)Nc2ccc3c(c2)oc2ccccc23)c(=O)c2ccccc12,,"inconclusive: 12.6 µM [cytotoxic, single point]"
O=C(NCCc1ccccc1)c1cc(Sc2cccc(Cl)c2)nc2ccccc12,,"inconclusive: 20 µM [cytotoxic, partial curve, poor fit]"
Cc1ccc(/C=C/c2onc(C)c2S(=O)(=O)N2CCC(C(=O)NCC(C)c3ccccc3)CC2)cc1 (stereo not drawn),,"inconclusive: 25.1 µM [cytotoxic, partial curve]"
C=CCN1C(=NC(=O)CCCC(=O)O)SC2CS(=O)(=O)CC21 (stereo not drawn),inactive: 3.58%,

Structure (SMILES),"activity change, negative = cell killing",Potency
COc1cccc(Cn2c(=O)c(-c3ccc(Cl)cc3)nc3cnc(N4CCNCC4)nc32)c1,,"inconclusive: 15.8 µM [cytotoxic, single point]"
Clc1ccc(-n2nnnc2Sc2ncnc3sccc23)cc1,,active: 20 µM
COc1cc(C2c3c(-c4cc(C)ccc4O)n[nH]c3C(=O)N2CCCO)ccc1OCCC(C)C (stereo not drawn),,"inconclusive: 31.6 µM [cytotoxic, single point]"
CCOc1ccc(NC(=O)CN2CCCN(Cc3cc(C)ccc3C)S2(=O)=O)cc1,inactive: -7.97%,
Cn1c(-c2ccc(F)cc2)cnc1NCc1ccccc1,,"inconclusive: 31.6 µM [cytotoxic, single point]"
Cc1ccc2c(=O)c(C(=O)c3cccc(Cl)c3)cn(CC(=O)Nc3ccc4c(c3)OCCO4)c2n1,inactive: -18.1%,
O=C(CSc1nnc(NC(=O)Nc2ccccc2)s1)Nc1cccc(F)c1,,"inconclusive: 7.94 µM [cytotoxic, partial curve]"
COc1ccc(-n2nnnc2S(=O)(=O)CC(=O)N2CCCCC2)cc1,,"inconclusive: 31.6 µM [cytotoxic, single point]"
NCCCCCCCCCCNS(=O)(=O)c1cccc2c(Cl)cccc12,,active: 15.8 µM
COc1cc(C(=O)Nc2cc(-c3nc4cc(C)ccc4o3)ccc2C)cc(OC)c1OC,,"inconclusive: 10 µM [cytotoxic, partial curve]"
COc1cccc(/C=N/NC(=O)c2cc(-c3ccc(C)cc3)n[nH]2)c1O,,"inconclusive: 1.58 µM [cytotoxic, full curve]"
CCOc1ccc(/C=C/c2nc3ccccc3n2S(=O)(=O)c2ccc(Br)cc2)cc1,,active: 7.94 µM
CCC(=O)Nc1ccc(NC(=O)c2cccc(OC)c2)nc1,inactive: -29.7%,
N#CC1(c2ccc(NC(=O)c3ccccc3F)cc2)CCCC1,,"inconclusive: 14.1 µM [cytotoxic, single point]"
COc1cccc(Nc2ncc3nc(-c4ccc(Cl)cc4)c(=O)n(CCC#N)c3n2)c1,inactive: 8.98%,
CCN(c1ccccc1)S(=O)(=O)c1ccc(C(=O)Nc2nnc(COC)o2)cc1,,"inconclusive: 12.6 µM [cytotoxic, partial curve]"
Cc1ccc(-n2ncc3c(NCCCn4ccnc4)ncnc32)cc1Cl,,"inconclusive: 1.26 µM [cytotoxic, partial curve]"
CCN(CC)C(=O)Cn1c(=O)nc(-c2ccccc2F)c2cc(Cl)ccc21,inactive: 13.3%,
Nc1ccc2oc(-c3ccc4nc[nH]c4c3)nc2c1,,active: 14.1 µM
CCOc1ccc(C(=O)c2cn(Cc3ccc(Cl)cc3)c3cc(OC)c(OC)cc3c2=O)cc1,inactive: -12.1%,
CCC(Cc1ccccc1)NC(=O)Cn1ncc2c3ccccc3n(Cc3ccccc3)c2c1=O (stereo not drawn),,"inconclusive: 10 µM [cytotoxic, partial curve]"
COc1cccc(OC)c1OCCNC[C@@H]1CSc2ccccc2O1,,"inconclusive: 6.31 µM [cytotoxic, partial curve]"
COC(=O)c1ccc(OCC2c3cc(OC)c(OC)cc3CCN2C(=O)C(C)C)cc1 (stereo not drawn),,"inconclusive: 25.1 µM [cytotoxic, single point]"

Structure (SMILES),"activity change, negative = cell killing",Potency
Cc1ccc(NC(=O)Cn2c(=O)n(-c3ccccc3)c(=O)c3c4c(sc32)CCCC4)cc1,,active: 12.6 µM
O=C1OCCC1Sc1nnc(-c2ccco2)o1 (stereo not drawn),inactive: 7.57%,
CCOc1ccc(NC(=O)c2c(NC(=O)Cc3ccccc3)sc3c2CCC(C)C3)cc1 (stereo not drawn),,"inconclusive: 20 µM [cytotoxic, single point]"
COc1ccc2c(Sc3ccccc3)c(C(=O)NCCc3ccc(Cl)cc3)[nH]c2c1,,"inconclusive: 10 µM [cytotoxic, partial curve]"
O=C(CSc1ncc2c(n1)-c1ccc(Cl)cc1N(Cc1ccccc1)S2(=O)=O)Nc1ccc(F)c(F)c1,,"inconclusive: 31.6 µM [cytotoxic, single point]"
COc1ccc(-c2nnc(SCc3cc(=O)c4cc(C)cc(C)c4[nH]3)n2C)cc1,inactive: -2.89%,
COc1ccccc1NC(=O)c1cc2ccc3cccnc3c2[nH]1,,active: 7.94 µM
COCCn1c(=O)c(CCc2ccccc2)nc2cnc(N3CCN(C)CC3)nc21,inactive: 3.43%,
COc1ccc(S(=O)(=O)Nc2cccc(-c3ccc(N4CCC(C)CC4)nn3)c2)cc1OC,,active: 2.51 µM
CCn1c(=O)c2cc(C(=O)Nc3cc(OC)c(OC)c(OC)c3)sc2c2ccccc21,,"inconclusive: 31.6 µM [cytotoxic, single point]"
Cc1cc(C)nc(Sc2nc(C)nc3c2oc2ccccc23)n1,,"inconclusive: 31.6 µM [cytotoxic, single point]"
CN[C@@H](CC(C)C)C(=O)N[C@@H]1C(=O)N[C@H](CC(N)=O)C(=O)N[C@H]2C(=O)N[C@H]3C(=O)N[C@H](C(=O)N[C@H](C(=O)O)c4cc(O)cc(O)c4-c4cc3ccc4O)[C@H](O)c3ccc(c(Cl)c3)Oc3cc2cc(c3O[C@@H]2O[C@@H](CO)[C@@H](O)[C@@H](O)[C@H]2O[C@H]2C[C@](C)(N)[C@H](O)[C@H](C)O2)Oc2ccc(cc2Cl)[C@@H]1O,inactive: -10.9%,
Cc1ccc(C(=O)Nc2nc3ccc(S(C)(=O)=O)cc3s2)o1,,active: 12.6 µM
O=C(CCC(=O)N1CCSc2ccccc21)Nc1ccc(Cl)cc1,,"inconclusive: 31.6 µM [cytotoxic, single point]"
NC(N)=NC(N)=Nc1ccccc1 (tested in a mixture with another compound),inactive: 11.6% [at 9.22 µM],
Cc1nc(N2CCOCC2)c2c(C(=O)NCc3ccc(Cl)cc3)c(C)oc2n1,inactive: -15.3%,
Cc1sc(-n2cccc2)c(C(C)NC(=O)Nc2cccc(C(F)(F)F)c2)c1C (stereo not drawn),,"inconclusive: 10 µM [cytotoxic, partial curve]"
Cc1ccc(-n2c(=O)c3c(c4cc(C)ccc4n3C)n(CC(=O)Nc3ccc(F)cc3)c2=O)cc1,,"inconclusive: 12.6 µM [cytotoxic, partial curve]"
Cc1cc(C)cc(NC(=O)CCc2c(C)nc3nc(CNC(=O)c4cccc(F)c4)nn3c2C)c1,inconclusive: -32.4% [cytotoxic],
CC(CNC(=O)c1ccc2c(c1)nc1n2CCCCC1)c1ccccc1 (stereo not drawn),,active: 12.6 µM
O=C(NC1=NCCS1)c1ccc(Cl)s1,,"inconclusive: 15.8 µM [cytotoxic, single point]"
COC(=O)c1nn(-c2ccc(-c3ccccc3)cc2)cc1O,,"inconclusive: 15.8 µM [cytotoxic, partial curve]"
